The values below come from PubChem BioAssay AID504444 (National Center for Advancing Translational Sciences (NCATS), 2011).

The whole screen tested about 360,000 compounds, of which about 7,500 (2.1%) were called active. About 20% were inconclusive and are not listed. Calls come from the whole dose curve; as a rule, active = well fitted inhibition curve with a large enough effect; inconclusive = small, poorly fitted or top-dose-only effect, or effect the other way; inactive = flat fitted curve, though single readings scatter. The list shows a part of the results, in another mix than the full data.
% is set by controls: 0 for no effect and ±100 for the full control effect; potency is the fitted concentration of half-maximal effect.

A short description of this experiment: Nrf2 qHTS screen for inhibitors. Note: nearly all actives have a fitted effect of over 60% in size. The note with it: A549 ARE-Fluc reporter, luciferase luminescence, 18-24 h; series mostly up to 46 µM; activity change, negative = inhibition: at the top concentration. The method, boiled down: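 Nrf2 function is reported as luminescence of an ARE-controlled luciferase in A549 cells. Compounds were tested at several concentrations, and a CellTiter-Fluor read on the same wells flagged cytotoxicity.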
(In qHTS, concentration-response curves come from the screen itself.)
Regarding `COc1cc(O)c(C(CC(=O)N2CCN(c3ccccc3)CC2)c2ccc3c(c2)OCO3)c(OC)c1` (centres undefined), the “activity change, negative = inhibition” value was inactive: 1.31%.

As to `CCC(=O)/C=C1/Sc2ccc(OC)cc2N1CCO`, the “activity change, negative = inhibition” value is inactive: 0.493%.

`C=CCC[C@@H](Cc1ccc(F)cc1)C(=O)OC[C@H](C)NC(=O)[C@@H](CC=C)CC(=O)N[C@@H](CO)Cc1ccccc1`: the “activity change, negative = inhibition” value was inactive: -10.9%.

As for `COc1cc(/C=C2\SC(=O)NC2=O)ccc1Oc1ccc([N+](=O)[O-])cc1[N+](=O)[O-]`, the “activity change, negative = inhibition” value was inactive: -16.9%.

As to `CCC(C(=O)Nc1cc(F)ccc1F)n1nc(C)c2c(C)n(-c3ccc(C)cc3)nc2c1=O` (centres undefined), the Potency is active: 23.1 µM.

With `O=[N+]([O-])c1cccc(/C([O-])=C(/C(=S)Nc2cccc3ccccc23)[n+]2ccccc2)c1`, the “activity change, negative = inhibition” value was inactive: 21.3%.

As to `COC(=O)[C@@H]1[C@@H](C)N(Cc2ccccc2)C(=O)N[C@H]1c1cccc(C(F)(F)F)c1`, the “activity change, negative = inhibition” value was inactive: -22.9%.

Consider `CC(C)(C)S(=O)N1Cc2ccc(CO)cc2[C@H]1CCO` (some centres undefined), for which the “activity change, negative = inhibition” value is inactive: 3.69%.

With `Cc1ccc(C(=O)Nc2nnc(S(=O)(=O)N3CCOCC3)s2)cc1`, the “activity change, negative = inhibition” value was inactive: 18.1%.

Consider `CCCCCc1ccc(OCCCC[n+]2ccc(C)cc2)c(CCCCC)c1`, for which the Potency was active: 10.3 µM.

Turning to `Cc1ccc(S(=O)(=O)N2CCC(Oc3ccc(-n4cnnn4)cc3)CC2)cc1`, the “activity change, negative = inhibition” value is inactive: -19%.

In the case of `COc1ccc(/C=C/c2nnc(NC(=O)CSc3ccc(C)cc3)s2)cc1`, the “activity change, negative = inhibition” value was inactive: 6.75%.

For the molecule `C=CCC[C@@H](Cc1ccc(F)cc1)C(=O)OC[C@H](Cc1c[nH]c2ccccc12)NC(=O)[C@H](CC=C)CC(=O)NCCO`, the “activity change, negative = inhibition” value was inactive: -11.2%.

In the case of `CCN1CCSc2ccc(C(=O)NCc3ccc(OC(C)C)cc3)cc21`, the “activity change, negative = inhibition” value was inactive: -8.12%.

Take `Cc1cc(C)c(NC(=O)Cn2c(=O)c3cccn3c3ccccc32)c(C)c1`: the “activity change, negative = inhibition” value was inactive: 3.92%.

Turning to `O=C(N/N=C/C=C/c1ccccc1)c1cnccn1`, the “activity change, negative = inhibition” value is inactive: 24.4%.

Turning to `C=CC[C@@H](CC(=O)N(CCO)Cc1ccccc1)C(=O)N[C@@H](COC(=O)[C@@H](CC=C)CC(=O)OC(C)(C)C)Cc1c[nH]c2ccccc12`, the “activity change, negative = inhibition” value was inactive: -25.7%.

Turning to `C=CC[C@@H](CC(=O)N[C@H](CO)Cc1ccccc1)C(=O)N[C@H](COC(=O)[C@@H](CC=C)CC(=O)OC(C)(C)C)Cc1ccccc1`, the “activity change, negative = inhibition” value is inactive: 1.15%.

In the case of `N=c1c2c(n(Cc3ccccc3)c3c1CCC3)CCC2`, the Potency was active: 1.46 µM.

Turning to `COc1ccc(C)cc1NC(=O)c1ccc(NS(=O)(=O)c2c(C)noc2C)cc1`, the “activity change, negative = inhibition” value is inactive: -0.831%.

For `CN1C(C(=O)Nc2cccc(O)c2)=CC(c2cccs2)=NS1(=O)=O`, the “activity change, negative = inhibition” value is inactive: -8.02%.

In the case of `C=CCC[C@@H](Cc1ccc(F)cc1)C(=O)OC[C@@H](C)NC(=O)[C@H](CC=C)CC(=O)N(CCO)Cc1ccccc1`, the “activity change, negative = inhibition” value was inactive: -20.4%.

On to `NC(=O)c1cc(S(=O)(=O)NCc2cccc(Br)c2)cs1`, for which the “activity change, negative = inhibition” value was inactive: -27.1%.

On to `C=CCOC(=O)C1=C[C@H](c2csc3ccccc23)C[C@H](OCc2ccc(CO)cc2)O1`, for which the “activity change, negative = inhibition” value was inactive: -15.6%.

For `NC(=O)N1c2ccccc2C=Cc2ccccc21`, the “activity change, negative = inhibition” value is inactive: -7.07%.

Regarding `C/C(=N/Nc1ccc(C(=O)c2c(C)cc3ccccn23)cc1[N+](=O)[O-])c1ccc(O)cc1`, the “activity change, negative = inhibition” value is inactive: 12.2%.

For the molecule `CCn1c(SCC(=O)N/N=C/C=C/c2ccccc2[N+](=O)[O-])nnc1-c1ccccc1`, the “activity change, negative = inhibition” value is inactive: 5.6%.

Consider `Cc1nc(-c2ccc(S(=O)(=O)N3CCN(Cc4ccccc4)CC3)s2)cs1`, for which the Potency was active: 16.4 µM.

As for `CN1C(c2ccc(F)cc2)=CS/C1=C(/C#N)c1nnc2n1-c1ccccc1SC2`, the “activity change, negative = inhibition” value was inactive: -26.9%.

Turning to `N#Cc1ccc(NC(=O)Nc2ccc(Cl)cc2)cc1`, the Potency is active: 18.4 µM.

Take `CCC(CC)C(=O)Nc1nnc(S(=O)(=O)N2c3ccccc3CC2C)s1` (centres undefined): the “activity change, negative = inhibition” value is inactive: 2.07%.

In the case of `CCOC(=O)Cn1c(=O)oc2cc(S(=O)(=O)NC(C)c3ccccc3)ccc21` (centres undefined), the “activity change, negative = inhibition” value is inactive: 17%.

For `COc1cc(NC(=O)C(=O)Nc2ccc3nc4n(c(=O)c3c2)CCCCC4)cc(OC)c1OC`, the “activity change, negative = inhibition” value was inactive: -21.6%.

As for `CCOC(=O)/C(=C/C=C/c1ccccc1)NC(=O)c1ccccc1`, the “activity change, negative = inhibition” value is inactive: -10.3%.

For `CCc1cccc(NC(=O)C2CCCN(S(=O)(=O)c3cccs3)C2)c1` (centres undefined), the “activity change, negative = inhibition” value is inactive: -25.2%.

As for `COc1ccc(C(CC(=O)N2CCCCC2)c2c(O)cc(OC)cc2OC)cc1` (centres undefined), the “activity change, negative = inhibition” value was inactive: 3.94%.

`CN(C[C@H](Cc1ccccc1)N(C[C@H](Cc1cccc2ccccc12)N(CCc1ccccc1)N=O)N=O)N=O`: the “activity change, negative = inhibition” value was inactive: 7.52%.

For `C[C@H](NC(=O)c1nc[nH]c1C(=O)N[C@@H](C)c1ccccc1)c1ccccc1`, the “activity change, negative = inhibition” value was inactive: 2.1%.

In the case of `CCOC(=O)C1=C(CN2CCN(c3ccccc3F)CC2)NC(=O)NC1c1ccc(Cl)cc1` (centres undefined), the Potency is active: 20.6 µM.

Consider `COc1ccc(OCC(=O)Nc2nnc(S(=O)(=O)N3CCCCCC3)s2)cc1`, for which the “activity change, negative = inhibition” value was inactive: -3.35%.

For `CCc1ccccc1NC(=O)C1=CC(c2ccc(OC)c(OC)c2)=NS(=O)(=O)N1C`, the “activity change, negative = inhibition” value was inactive: 6.06%.

With `CCO[C@H]1OC(C(=O)N2CCN(Cc3ccccc3)CC2)=C[C@@H](c2coc3ccccc3c2=O)[C@@H]1CCCO`, the “activity change, negative = inhibition” value is inactive: -4.8%.

Turning to `COc1ccc(-c2cc(C)no2)cc1S(=O)(=O)NCc1ccc(OC(C)C)cc1`, the “activity change, negative = inhibition” value was inactive: 12.9%.

Turning to `COc1cc(NC(=O)c2cc(-c3ccc4c(c3)OCO4)on2)cc(OC)c1OC`, the “activity change, negative = inhibition” value was inactive: -8.86%.

As to `Cn1c(=O)n(CC(=O)O)c(=O)c2c1nc1n2CCS1`, the “activity change, negative = inhibition” value is inactive: -4%.

In the case of `CCOC(=O)[C@@H]1[C@H]2COc3ccc(Br)cc3[C@H]2N2C(=O)N(c3ccc(OC)cc3)C(=O)[C@]12C`, the “activity change, negative = inhibition” value is inactive: -11.4%.

Turning to `C=CCC[C@@H](Cc1ccc(F)cc1)C(=O)OC[C@@H](Cc1c[nH]c2ccccc12)NC(=O)[C@H](CC=C)CC(=O)N(CCO)Cc1ccccc1`, the Potency was active: 23.1 µM.

Consider `COC(=O)[C@H](C)[C@H]1C[C@]1(C)[C@H](NC(=O)OCc1ccccc1)c1ccccc1`, for which the “activity change, negative = inhibition” value is inactive: 3.66%.

As to `COc1ccc(OC2CCN(S(=O)(=O)c3cccc(F)c3)CC2)cc1`, the “activity change, negative = inhibition” value was inactive: -15%.

`C=CCC[C@H](Cc1ccc(F)cc1)C(=O)OC[C@@H](Cc1c[nH]c2ccccc12)NC(=O)[C@@H](CC=C)CC(=O)NCCO`: the “activity change, negative = inhibition” value is inactive: -17.7%.

For the molecule `CC(C)(C)OC(=O)C[C@H]1C/C=C\C[C@@H](CC(=O)N(CCO)Cc2ccccc2)C(=O)NC[C@@H](c2ccccc2)OC1=O`, the “activity change, negative = inhibition” value was inactive: 10%.

On to `O=C(NC(Nc1nc2ccc([N+](=O)[O-])cc2s1)(C(F)(F)F)C(F)(F)F)c1cccnc1`, for which the Potency is active: 5.8 µM.

For `Cc1cccc(OCC(=O)Nc2nnc(S(=O)(=O)N3CCCCCC3)s2)c1`, the “activity change, negative = inhibition” value was inactive: -2.48%.

Consider `CN(Cc1nccn1C)C(=O)c1cc(COc2ccc3ncccc3c2)on1`, for which the Potency was active: 20.6 µM.

For `CCN1C(=O)[C@@H]2[C@@H](c3ccc(-c4ccc(C(C)=O)cc4)c(OC)c3)N3CCCC[C@@]3(C(=O)OC)[C@@H]2C1=O`, the “activity change, negative = inhibition” value was inactive: 0.126%.

Turning to `CCOC(=O)N1C(=O)[C@](CC)(c2ccccc2)N1C(=O)OCC`, the “activity change, negative = inhibition” value was inactive: -4.45%.

Regarding `Cc1ccc(-n2ncc3c(SCc4cccnc4)ncnc32)c(C)c1`, the Potency is active: 4.11 µM.

Take `CCOc1ccc(NS(=O)(=O)c2c(C)nc3sc(CC)nn3c2=O)cc1`: the “activity change, negative = inhibition” value was inactive: -5.07%.

With `CC(=O)OCC(=O)C1(O)CCC2C3CC(F)C4=CC(=O)CCC4(C)C3C(O)CC21C` (centres undefined), the Potency was active: 0.0651 µM.
